According to PubChem BioAssay (NCI):
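96-well plates; 48 h exposure; 5 concentrations. Endpoints by linear interpolation between flanking doses. Not reached: highest tested concentration assigned. Here, GI50 denotes the concentration required for 50% inhibition of growth. TGI marks complete inhibition of growth.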

Test system: NCI-H322M lung
Experiment: growth of human tumour cells (NCI), 48 h

| SMILES | GI50 [µM] | TGI [µM] |
| --- | --- | --- |
| CC1=C(C=O)C2=C(C)C3(CC3)[C@@](C)(O)C(=O)C2=C1 | 0.327 | 1.23 |
| COc1ccc2[nH]cc(/C=N/Nc3ccc(Br)cn3)c2c1 | 13.4 | > 100 |
| Cn1cc(-c2cc(N)n3nc(-c4c[nH]c5ccccc45)cc3n2)c2cc(Cl)ccc21 | 4.54 | 20.4 |
| O=C(Cn1c(/C=C/c2ccccc2)nc2ccccc2c1=O)Nc1ccc(Cl)cc1 | > 100 | > 100 |
